Measurements: PubChem BioAssay (NCATS)
The shares of active, inactive and inconclusive entries below differ from those in the screen. Potencies of inconclusive entries are left out as doubtful fits. The source made the active and inactive calls. The call rests on the fitted dose curve; in most records, active means well fitted inhibition curve with a large enough effect; inconclusive means small, poorly fitted or top-dose-only effect; inactive means no such curve, though single readings can be large or run the other way.

test system: Zika virus NS2B-NS3 protease (linked construct); assay: Primary screen NINDS Rhodamine qHTS for Zika virus inhibitors (AID 1347160); details: purified NS2B-NS3 protease, Rhodamine110 substrate fluorescence; series mostly up to 57.1 µM; activity change, negative = inhibition: at the top concentration; further: nearly all actives have a fitted effect of over 55% in size
Source text: Avindra Nath, Ph.D., National Institute of Neurological Disorders and Stroke (NINDS), Bethesda, MD
Radhakrishnan Padmanabhan, Ph.D., Georgetown University (GU), Washington D.C.
Zika Virus causes congenital defects, including microcephaly and is associated with Guillain-Barre syndrome, eningoencephalitis and myelitis in infected adult. […] Using a target-based approach, we hope to establish a screening paradigm to uncover novel, cell-active NS2B-NS3 protease (Zika Virus) specific inhibitors from NCATS' collection of small molecules using qHTS.
Four assay panel was created to identify potential Zika Virus inhibitors. Namely, (1) GU unlinked NS2B-NS3 AMC tagged protease qHTS, (2) GU unlinked NS2B-NS3 Rhodamine tagged protease qHTS, (3) NINDS linked NS2B-NS3 AMC tagged protease qHTS, (4) NINDS linked NS2B-NS3 Rhodamine tagged protease qHTS. Active compounds were re-acquired and re-screened to confirm inhibition. Inhibitors were further screened against various confirmatory and counterscreens in dose response format.
Early Translation Branch (ETB)
National Center for Advancing Translational Sciences (NCATS), Rockville, MD
National Institute of Health (NIH), Bethesda, Maryland
For the linked assay, Nath lab (NINDS) provided the purified linked NS2B-NS3 protease which is consists of hydrophilic domain of NS2B linked to the NS3 protease domain by a flexible (-[…]-) linker. Control compound aprotinin is obtained from Thermo Scientific (#78432; Waltham, Massachusetts). Rhodamine110 substrate ([N-Cbz]-Nle-Lys-Arg-Arg-Rhod110-Arg-Arg-Lys-Nle-[N-Cbz]) was purchased from either Genscript or Bachem.
1536-well Protease (Rhodamine110 Substrate) Assay:
Briefly, 3 microL of enzyme (25 nM final concentration), in assay buffer (10 mM Tris-HCl pH 8.0 with 0.01% Tween 20) were dispensed into a 1,536-well solid-bottom black plate (Greiner Bio One, Monroe, NC). Twenty-three nL of compounds (final concentration range 7.28 nM to 114 microM) or control Aprotinin (final concentration range 3.47 nM to 114 microM) were transferred via Wako Pin-tool (Wako Automation, Richmond, VA). Samples were incubated (room temperature, protected from light) for 15 minutes followed by a 1 microL Rhodamine110 substrate addition (1.5 microM final concentration). Plates were then immediately read on a ViewLux High-throughput CCD imager (PerkinElmer, Waltham, MA) equipped with FITC fluorescence optics (480(20) nm excitation, 540(25) nm emission), then incubated (room temperature, protected from light) for 15 minutes (~15% conversion). The change in fluorescence intensity over the 15-minute reaction period was normalized against no-inhibitor and no-enzyme controls and the resulting percent inhibition data were fitted to a 4-parameter Hill equation. Aprotinin was used as intraplate control.
On the % scale 0 is the no-effect control and ±100 the full control effect; potency means the concentration at half of the fitted maximal effect; tags describe the fitted curve by direction and shape.

Compound | activity change, negative = inhibition | Potency
CC(=O)OCC(=O)[C@@]1(O)CC[C@H]2[C@@H]3CCC4=CC(=O)C=C[C@]4(C)[C@H]3[C@@H](O)C[C@@]21C | inactive: 12.5% | –
O=c1cc(-c2ccccc2)oc2cc(O)c(O)c(O)c12 | – | active: 17.5 µM
C=C[C@H]1CN2CC[C@H]1C[C@H]2[C@H](O)c1ccnc2ccc(OC)cc12 | – | inconclusive [inhibitor, full curve]
O=C1CCCC2=C1C(c1[nH]ncc1Cl)N=C(Nc1nc3ccccc3o1)N2 (configuration not stated) | inactive: -4.6% | –
CCN(CC)CCNC(=O)c1cc(Cl)c(N)cc1OC | inactive: 5.89% | –
CC1CN(c2cc3c(cc2F)c(=O)c(C(=O)O)cn3-c2ccc(F)cc2F)CCN1 (configuration not stated) | – | inconclusive [inhibitor, single point]
O=C(CCN1CCN(C(=O)OCc2cc(Cl)cc(Cl)c2)CC1)c1ccc2[nH]c(=O)oc2c1 | – | inconclusive [inhibitor, partial curve, poor fit]
O=C(NOCC1CC1)c1ccc(F)c(F)c1Nc1ccc(I)cc1Cl | – | inconclusive [inhibitor, single point]
O=C(Nc1ccc(F)c(C(F)(F)F)c1)Nc1nnc(-c2ccncc2)s1 | – | active: 2.82 µM
O=C1NC(=O)/C(=C/c2ccc3c(c2)OC(F)(F)O3)S1 | – | inconclusive [inhibitor, partial curve, poor fit]
C=C(c1ccc(C(=O)O)cc1)c1cc2c(cc1C)C(C)(C)CCC2(C)C | – | inconclusive [inhibitor, full curve]
Cc1ccnc(NS(=O)(=O)c2ccc(NC(=O)Nc3ccc(S(=O)(=O)Nc4nccc(C)n4)cc3)cc2)n1 | – | inconclusive [inhibitor, single point]
CC(C(=O)O)c1ccc2c(c1)[nH]c1ccc(Cl)cc12 (configuration not stated) | – | inconclusive [inhibitor, single point]
O=C(O)c1cc(O)c(O)c(O)c1 | – | active: 49.3 µM
CC1=C[C@@H]2[C@@H]([C@@H](O)C[C@@]3(C)[C@H]2C[C@@H](C)[C@]3(O)C(=O)CO)[C@@]2(C)Cc3cnn(-c4ccccc4)c3C=C12 | – | inconclusive [inhibitor, partial curve]
COc1cccc(-c2ccc(NC(=O)C3=C(C(=O)O)CCC3)c(F)c2)c1 | – | inconclusive [inhibitor, partial curve, poor fit]
CC(C)CNc1ccnc(NCc2csc(-c3ccccc3)n2)n1 | inactive: 443% | –
